Data published in the supplement of paper PMC4967469.
By IC50 is meant the dose at which the fit gives 50% viability; fits outside the tested doses are given as limits. AUC sums up the same curve from the lowest dose to the 256-fold higher top dose; the more sensitive the line, the further below 1. For part of these data: Any top dose called inferred was derived from the fitted curves, not read from the paper. For part of these data: Where an entry number is given, a second screen of the drug exists; the two often differ.

Tests used:
Assay in all cases: Viability of human cancer cell lines after 72 h of drug (GDSC screen)
NSC-207895 = compound: CN1CCN(c2ccc([N+](=O)[O-])c3no[n+]([O-])c23)CC1 [NSC-207895]; conditions: top dose 20 µM; top dose inferred
Procedure: (§1)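 Human cancer cell lines in 384-well plates, medium with 10% serum, drug for 72 h over a 256-fold dose range (nine 2-fold or five 4-fold steps up to the top dose). Adherent lines were fixed and stained with the nucleic acid dye Syto60, suspension lines read with resazurin; signal relative to control wells, capped at 0 and 100%. One two-parameter sigmoid per drug and line, fitted in a mixed model over all curves with the slope shared within a line.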

FTI-277 = compound: COC(=O)[C@H](CCSC)NC(=O)c1ccc(NC[C@@H](N)CS)cc1-c1ccccc1 [FTI-277]; conditions: top dose 1.024 µM; top dose inferred
Procedure: as §1

YM155 = compound: COCC[n+]1c2c(n(Cc3cnccn3)c1C)C(=O)c1ccccc1C2=O [YM155]; conditions: top dose 5.12 µM
Procedure: as §1

OSI-906 = compound: C[C@]1(O)C[C@@H](c2nc(-c3ccc4ccc(-c5ccccc5)nc4c3)c3c(N)nccn32)C1 [OSI-906]; conditions: top dose 2.56 µM; top dose inferred
Procedure: as §1

SB-715992 = compound: Cc1ccc(C(=O)N(CCCN)[C@@H](c2nc3cc(Cl)ccc3c(=O)n2Cc2ccccc2)C(C)C)cc1 [SB-715992]; conditions: top dose 0.128 µM; top dose inferred
Procedure: as §1

JQ1 = compound: Cc1sc2c(c1C)C(c1ccc(Cl)cc1)=N[C@@H](CC(=O)OC(C)(C)C)c1nnc(C)n1-2 [JQ1]
Procedure: as §1

Belinostat = compound: O=C(/C=C/c1cccc(S(=O)(=O)Nc2ccccc2)c1)NO [Belinostat]; conditions: top dose 20 µM; top dose inferred
Procedure: as §1

JNJ-26854165 = compound: c1ccc2c(CCNc3ccc(Nc4ccncc4)cc3)c[nH]c2c1 [JNJ-26854165]; conditions: top dose 10 µM
Procedure: as §1

[1] = top dose 1 µM, screen: GDSC drug entry 1218, top dose inferred
[2] = top dose 2.56 µM, screen: GDSC drug entry 163

Cell Line | AUC (NSC-207895) | IC50 (NSC-207895) | AUC (FTI-277) | IC50 (FTI-277) | AUC (YM155) | IC50 (YM155) | AUC (OSI-906) | IC50 (OSI-906) | AUC (SB-715992) | IC50 (SB-715992) | AUC (JQ1; [1]) | IC50 (JQ1; [1]) | AUC (JQ1; [2]) | IC50 (JQ1; [2]) | AUC (Belinostat) | IC50 (Belinostat) | AUC (JNJ-26854165) | IC50 (JNJ-26854165)
769-P (kidney, adherent) | 0.858 | 18800 nM | 0.976 | > 1020 nM | 0.031 | < 20 nM | 0.954 | > 2560 nM | 0.596 | 15 nM | 0.972 | > 1000 nM | 0.594 | 297 nM | 0.35 | 461 nM |  | 
BICR31 (head and neck, adherent) | 0.921 | > 20000 nM | 0.972 | > 1020 nM | 0.034 | < 20 nM | 0.947 | > 2560 nM | 0.968 | > 128 nM |  |  | 0.831 | 1640 nM | 0.625 | 2780 nM |  | 
COR-L303 (small cell lung carcinoma, suspension) | 0.732 | 5560 nM |  |  | 0.023 | < 20 nM |  |  | 0.922 | > 128 nM |  |  |  |  | 0.1 | < 78.1 nM |  | 
Caov-3 (ovary, adherent) | 0.927 | > 20000 nM | 0.985 | > 1020 nM | 0.151 | 32.3 nM | 0.991 | > 2560 nM | 0.788 | 49.1 nM |  |  | 0.949 | > 2560 nM | 0.687 | 3860 nM |  | 
NCI-H1299 (large cell lung carcinoma, adherent) | 0.978 | > 20000 nM | 0.965 | > 1020 nM | 0.2 | 32.5 nM | 0.883 | > 2560 nM |  |  |  |  |  |  |  |  | 0.876 | > 10000 nM
SNU-175 (large intestine, suspension) | 0.886 | 19900 nM |  |  | 0.113 | < 20 nM |  |  | 0.655 | 21 nM |  |  |  |  | 0.271 | 294 nM |  | 
SNU-1040 (large intestine, adherent) | 0.788 | 12200 nM |  |  | 0.507 | 336 nM |  |  | 0.753 | 56.4 nM | 0.944 | > 1000 nM |  |  | 0.758 | 9190 nM |  | 
SW1088 (glioma, adherent) | 0.979 | > 20000 nM |  |  | 0.599 | 650 nM | 0.937 | > 2560 nM | 0.956 | > 128 nM | 0.95 | > 1000 nM | 0.972 | > 2560 nM | 0.78 | 10900 nM | 0.708 | 2910 nM
SW1116 (large intestine, adherent) | 0.931 | > 20000 nM |  |  | 0.978 | > 5120 nM |  |  | 0.985 | > 128 nM | 0.984 | > 1000 nM |  |  | 0.551 | 1810 nM | 0.979 | > 10000 nM
